Data from PMC12136788.
Some of the results follow.

T1: UNK ZnF1-3 (human, UniProt Q9C0B0 31-174)
T1 sequence: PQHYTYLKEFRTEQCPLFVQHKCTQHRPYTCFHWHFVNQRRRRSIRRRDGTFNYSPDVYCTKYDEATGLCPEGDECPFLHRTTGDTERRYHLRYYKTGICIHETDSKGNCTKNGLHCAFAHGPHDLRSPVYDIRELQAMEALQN

B1: chr7:90019490:90019491:+_ENSMUSG00000057706_ENSMUST00000082237|mus_hu|FALSE|FALSE (ssRNA)
RNA: GGGAGUUCUACAGUCCGACGAUCUCCGUCACAAUUGUGUGAUUAUUAAAAUAAUACAGUGUUCUUUGCCAUAAGGCCAUACUAAAAUAAAAAGAUUUAACCCAGCUACAAAAAAGUUCACUGAACUUAAAUUAAAAUACUUGUCAACAGAGGAUUGAGCAUCA
B2: 87969002_87969122_5758_CDS_ENSG00000188994_ENST00000369577|human|control|control (ssRNA)
RNA: GGGAGUUCUACAGUCCGACGAUCUUUACCAUAGUGCUUAAAUAGUGCAUCCUUUGUCAUAGCACUGUAGUUACAGCCUUGGUUUUGACACACAAAGGGUUUAUUAACUUUGUCAUUAAAUUGAAUGUUUAUCAUUUCAGAAACCAACAGAGGAUUGAGCAUCA
B3: 6602608_6602728_96_3pUTR_ENSG00000111639_ENST00000229238|human|control|control (ssRNA)
RNA: GGGAGUUCUACAGUCCGACGAUCUUUCAAGAAAAUUCACCCUUUCCGCUUUCUUUGGCGUCCUUCAACCGUGAAGGAAAUGAAGGUUGAGAACCUGGAACCCGCUUCCAAUGACCAAGCCCUUUCUCUGUGCCUCACAACAGUCAACAGAGGAUUGAGCAUCA
B4: 8059404_8059524_152_3pUTR_ENSMUSG00000022142_ENSMUST00000163765|mouse|control|control (ssRNA)
RNA: GGGAGUUCUACAGUCCGACGAUCCCGCGUUUUCCAAAGCUUCCUGCAGGGAGGCGGCGGCCGACGUAGAGGCCACCAUCAUAGAGCCCAGCACCGAUGGCAUGUCGGCAAUCGUGGCCACCGCCUUAUAGAAACACUCCAAACCAACAGAGGAUUGAGCAUCA
B5: chr12:70442348:70442349:-_ENSMUSG00000020982_ENSMUST00000021368|mus_hu|motif|central (ssRNA)
RNA: GGGAGUUCUACAGUCCGACGAUCAACAGGGUCUCCUUGAGCCUGGGCUUCUUUCACAAUUAACCCAAUUUCUGUCCAAUCGGUCUGGUUAGCUAAAGCACUUCGAACUACCUGAAUGGCUCUGUCAACUAUUUGUAGGUUCAUCAACAGAGGAUUGAGCAUCA
B6: 59170736_59171261_1518_CDS_ENSMUSG00000025235_ENSMUST00000026265|mouse|control|control (ssRNA)
RNA: GGGAGUUCUACAGUCCGACGAUCCUCUGGCUCCAGUGGCAGUGAUGGUGGCUUUGGGAGCUGGGCUCCUACAGCACCUGAAAGGAUCUUUCUGUAUGCAGCUGCUGAAGACAUCGCCUGUCCUAGAGCUUGAAUGGAACCCAGCAACAGAGGAUUGAGCAUCA

Each binder was assayed against T1, UNK ZnF1-3 (assay: nsRBNS (natural sequence RNA bind-n-seq); RBNS binding buffer (assumed for nsRBNS): 25 mM Tris pH 7.5, 150 mM KCl, 3 mM MgCl2, 0.01% Triton X-100, 500 ug/ml BSA, 20 U/ml SUPERase-In, 4 C; UNK is unkempt and MSI1 is Musashi-1; names of the RNAs are library labels; protein concentration not given here; high values mean tight binding).

| Binder | binding signal [enrichment R] |
| --- | --- |
| B1 | 2.43 |
| B2 | 0.646 |
| B3 | 0.983 |
| B4 | 0.812 |
| B5 | 0.744 |
| B6 | 0.757 |
